Measured values: PubChem BioAssay AID463173 (ICCB-Longwood Screening Facility, Harvard Medical School, 2010)
Out of some 52,000 compounds screened, about 1,700 (3.3%) were called active. No stated cut-off is given here; in the data, active means survival mostly below about 52% (no sharp cut-off); inactive means mostly above about 56%. Some of the results follow.

The molecules below were run on Wild type (assay: S. aureus survival, RN4220 and DeltatarO strains – OD600, teichoic acid synthesis inhibitors, primary screen (AID 463173)). Settings: S. aureus RN4220 wild type/DeltatarO growth, OD600, 18 h, stronger effect = lower value, screened at 18.75 µg/mL (by protocol).

SMILES | survival
O=C(CCn1nnc(-c2cccs2)n1)NC1CCCCC1 | inactive: 115%
CCOC(=O)c1ccc2c(c1)N(Cc1ccccc1)C(=O)c1ccccc1S2 | inactive: 75%
COc1ccc(CCNC(=O)CCSCc2ccccc2Cl)cc1OC | inactive: 88%
O=C(NCCS(=O)(=O)N1CCN(c2ccc(F)cc2)CC1)C1CC(=O)N(c2ccc(F)cc2)C1 (stereo unspecified) | inactive: 70%
COc1cccc(-c2cc(C(=O)Nc3ccn(Cc4ccc(C)cc4)n3)no2)c1 | inactive: 55%
CC(C)c1ccc2oc(-c3ccc(NC(=O)c4cc5ccccc5o4)cc3)nc2c1 | inactive: 61%
CCCCc1ccc(NC(=O)CSc2nc3ccccc3nc2N2CCOCC2)cc1 | inactive: 44%
O=C(Nc1cc(Cl)cc(Cl)c1)c1ccc(F)c(S(=O)(=O)NC2CCCCC2)c1 | inactive: 64%
[O-][n+]1c2c(nn1-c1ccccc1)/C(=N\O)CCC2 | inactive: 102%
Cc1ccn2c(Nc3ccc4c(c3)OCO4)c(-c3ccc(O)cc3)nc2c1 | inactive: 71%
CCCOC(=O)C(C)n1nnc2sc(-c3ccccc3)cc2c1=O (stereo unspecified) | inactive: 89%
CCCCOc1ccc(S(=O)(=O)n2nc(C)c(S(=O)(=O)N3CCC(C)CC3)c2C)cc1 | inactive: 87%
COc1cccc(CNS(=O)(=O)c2cc(Br)cc3c2N(C(C)=O)C(C)C3)c1 (stereo unspecified) | inactive: 136%
O=C(CSCc1cnn(-c2ccccc2)c1-n1cccc1)NCc1ccccc1F | inactive: 92%
CCCN1CCN(c2ncnc3sc(C(=O)Nc4ccc(N(CC)CC)cc4C)c(C)c23)CC1 | inactive: 128%
Cc1cccc(Cc2cnc(NC(=O)c3ccc4c(c3)CC(c3ccccc3)OC4=O)s2)c1 (stereo unspecified) | inactive: 92%
CCc1ccc(-n2c(=O)c3c4c(sc3n(CC(=O)NCCCOC)c2=O)CCC4)cc1 | inactive: 79%
Cc1ccc2oc(C(=O)Nc3ccc(S(=O)(=O)N(C)Cc4ccccc4)cc3)cc(=O)c2c1 | inactive: 81%
COc1cccc(CC(=O)NCc2ccc3c(c2)CCN3C(C)=O)c1 | inactive: 71%
CCc1ccccc1NC(=O)C1CCN(c2nn3c(=O)cc(C)nc3s2)CC1 | inactive: 88%
CN(C)S(=O)(=O)Nc1ccc(-c2cn3ccsc3n2)cc1 | active: 14%
COC(=O)c1ccccc1NC(=O)c1nc(S(=O)(=O)Cc2ccccc2F)ncc1Cl | inactive: 118%
Cc1ccc(-n2nc(C(=O)N3CCN(c4ccccc4)CC3)c(=O)n(C)c2=O)cc1 | inactive: 146%

SMILES | survival
CC(NC(=O)c1ccc2nc(CCc3ccccc3)oc2c1)c1ccccc1 (stereo unspecified) | inactive: 91%
Cc1ccccc1Cn1c(C)c(CNCc2ccccc2)c(C(=O)O)c1C | inactive: 85%
CC(C)Oc1ccc(CNC(=O)c2ccc3nc(SCc4ccc(F)cc4)n(C)c3c2)cc1 | inactive: 123%
Cc1ccc(C)c(NC(=O)CCc2c(C)n(C)c3cc(-c4ccccc4C)nn3c2=O)c1 | inactive: 45%
O=C(NCCc1ccc(Cl)cc1)c1ccc2c(c1)N(Cc1ccccc1)CCS2 | inactive: 119%
O=C(Nc1ccc2oc(-c3cccnc3)nc2c1)c1ccc(-c2cccc(OC(F)(F)F)c2)o1 | inactive: 80%
COc1cccc(N2CCN(C(=O)c3ccc(CS(=O)c4cccc(Cl)c4)o3)CC2)c1 (stereo unspecified) | inactive: 84%
COc1ccc(NC(=O)c2nc(SCc3ccccc3F)ncc2Cl)cc1 | inactive: 87%
COc1ccc(Br)cc1S(=O)(=O)N1CCCCCC1 | inactive: 117%
CCOc1ccc(NC(=O)Cn2c(CCC(=O)O)ccc2-c2ccc(Cl)cc2)cc1 | inactive: 85%
CCCN1C(C(=O)c2ccccc2)=C(OC(=O)c2ccc(F)cc2)c2ccccc2S1(=O)=O | inactive: 55%
Cc1ccc(C)c(Cn2c3ccccc3c3cnn(CC(=O)N4CCCCC4)c(=O)c32)c1 | inactive: 82%
CC(C)c1ccc(C2=CC(c3cccc(Cl)c3)n3ncnc3N2)cc1 (stereo unspecified) | active: -3%
CCC(=O)Nc1sc2c(c1C#N)CCCC2 | inactive: 113%
Cc1ccc(NC(=O)CCS(=O)(=O)c2cccc3nonc23)c(C)c1 | inactive: 95%
CN(CCC#N)CC1Cc2ccccc2O1 (stereo unspecified) | inactive: 110%
COc1ccc(Cl)cc1NC(=O)c1cc(S(=O)(=O)N2CCc3ccccc32)cn1C | inactive: 83%
NC(=O)c1ccc2nc(N)sc2c1 | inactive: 103%
Cc1nn(CCC(=O)NC(C)C)c(=O)c2nn(-c3ccccc3)c(C)c12 | inactive: 88%
COc1ccccc1CC(NC(C)=O)C(=O)N1CCN(C(=O)c2cccs2)CC1 (stereo unspecified) | inactive: 107%
Cc1cccc(-n2c(=O)c3ccccc3n(Cc3ccccc3C#N)c2=O)c1 | inactive: 83%
Cc1ccc(-c2nc3cc(N=Cc4ccccc4O)ccc3o2)cc1 | inactive: 105%
COc1cc2c(C(=O)N3CCN(c4cccc(C)c4)C(C)C3)cn(CC(C)C)c(=O)c2cc1OC (stereo unspecified) | inactive: 85%

SMILES | survival
CCc1nnc(NC(=O)c2nc(S(C)(=O)=O)ncc2Cl)s1 | inactive: 86%
O=C(CSc1nc2c([nH]c3ccccc32)c(=O)n1-c1cccc(Cl)c1)N1CCc2ccccc21 | inactive: 45%
Cc1ccc2nc(NCc3ccccc3Cl)c3nnnn3c2c1 | inactive: 94%
COc1cccc(Cc2nc3ccccc3nc2SCC(=O)N2CCCCC2C)c1 (stereo unspecified) | inactive: 71%
COc1cccc(C(=O)CN2CCN(S(=O)(=O)c3ccc(Cl)cc3)CC2)c1 | inactive: 76%
O=C(NCc1ccco1)c1ccc2c(c1)N(Cc1ccc(F)cc1)C(=O)c1ccccc1S2=O (stereo unspecified) | inactive: 98%
O=C(CN1C(=O)CSc2ccc(S(=O)(=O)N3CCCCC3)cc21)NCc1ccc(F)cc1Cl | inactive: 127%
COc1cc(NC(=O)CCc2c(C)n(C)c3cc(-c4ccccc4C)nn3c2=O)cc(OC)c1OC | inactive: 130%
CCOc1ccccc1NC(=O)c1sc2nc3c(cc2c1N)CN(Cc1ccccc1)CC3 | inactive: 77%
COc1cc2ccccc2cc1C(=O)Nc1ccc2oc(-c3cc(Br)ccc3Cl)nc2c1 | inactive: 71%
Cc1ccc(-c2noc(CSc3nnc(-c4ccc(Cl)cc4)n3C)n2)cc1 | inactive: 83%
Cc1cccc(C(=O)NCC(c2ccc3c(c2)OCO3)N2CCOCC2)c1 (stereo unspecified) | inactive: 89%
Cc1ccc(S(=O)(=O)NCc2cccnc2)cc1 | inactive: 118%
CC(C)C(=O)N(C)c1nnc(-c2ccc(F)cc2)s1 | inactive: 110%
O=C(c1ccco1)c1cn(CCOc2ccc(Cl)cc2)c2ccccc12 | inactive: 68%
CCc1ccc(C2C(C(=O)Nc3ccccc3)=C(C)Nc3nc(SCC(=O)c4ccc(C)cc4)nn32)cc1 (stereo unspecified) | inactive: 66%
CC(=O)c1ccc(NC(=O)Cn2c3ncccc3c(=O)n2-c2ccc(C)cc2)cc1 | inactive: 117%
COc1ccc(NC(=O)c2cnc(SCC(=O)Nc3nc4ccc(C)cc4s3)n(C)c2=O)cc1 | inactive: 81%
COc1ccc(C(CNC(=O)c2ccc(C)cc2)N2CCOCC2)cc1 (stereo unspecified) | inactive: 92%
O=C(c1cccs1)N1CCCc2cc(NS(=O)(=O)c3ccc(Cl)cc3)ccc21 | inactive: 78%
O=C(CSc1nccn1Cc1ccccc1)NC1CCCC1 | inactive: 88%
O=C(NC1CCCC1)C(c1ccccc1)N(C(=O)c1ccco1)C1CCCC1 (stereo unspecified) | inactive: 88%
O=C(NCCc1ccccc1)C(=O)NCC(c1cccnc1)N1CCN(c2ccc(F)cc2)CC1 (stereo unspecified) | inactive: 109%

SMILES | survival
CCC(=O)N1CCc2cc(CNC(=O)Nc3ccc(OC)cc3OC)ccc21 | inactive: 70%
CCC(C)N1CCN(C2CCCCC2)CC1 (stereo unspecified) | inactive: 108%
COc1ccccc1-c1cc(C(F)(F)F)nc(S(=O)(=O)CCCC(=O)Nc2cc(Br)ccc2O)n1 | inactive: 41%
c1ccc(CNCC2COc3ccccc3O2)cc1 (stereo unspecified) | inactive: 102%
Cc1cccc(-c2noc(-c3ccc(N4CCCC4)c([N+](=O)[O-])c3)n2)c1 | inactive: 81%
O=C(NCc1ccco1)C1C2C3CCC(C3)C12 (stereo unspecified) | inactive: 100%
CCN(C(=O)CN(C)S(=O)(=O)c1ccc2c(c1)n(C)c(=O)c(=O)n2C)c1cccc(C)c1 | inactive: 113%
COc1ccc(NC(=O)C2CCN(S(=O)(=O)c3c(C)noc3/C=C/c3ccco3)CC2)cc1 | inactive: 128%
CC(C)OC(=O)c1cc(=O)[nH]c2ccccc12 | inactive: 102%
CN(C)c1ccc(C(CNS(=O)(=O)c2cc(F)ccc2F)N2CCOCC2)cc1 (stereo unspecified) | inactive: 121%
Cc1cc(C)c(Cn2c(=O)n(CCCCCC(=O)NCc3ccc4c(c3)OCO4)c(=O)c3sccc32)c(C)c1 | inactive: 87%
c1ccc2oc(CCc3nc4ccccc4o3)nc2c1 | inactive: 112%
CCN(CC)C(=O)c1sc(NC(=O)C2c3ccccc3Oc3ccccc32)c(C(=O)OC(C)C)c1C | active: 8%
COc1ccc(NS(=O)(=O)c2ccc3[nH]c4c(c3c2)CCCC4)c(OC)c1 | inactive: 99%
CCOc1ccc(Nc2nc3ccccc3c3nnc(CC)n23)cc1 | inactive: 80%
COc1cccc(NC(=O)Cn2c(=O)n(-c3cccc(OC)c3)c(=O)c3c4c(sc32)CCCC4)c1 | inactive: 89%
O=C(O)C1CC(=O)N(c2cccc(Cl)c2)C1 (stereo unspecified) | inactive: 113%
Cc1ccc(CN(C(=O)c2ccccc2Br)C2CCS(=O)(=O)C2)o1 (stereo unspecified) | inactive: 88%
O=C(NCc1ccc(Cl)cc1)C(=O)Nc1cccc(Br)c1 | inactive: 150%
O=C(Nc1ccc2oc(-c3ccc4ccccc4c3)nc2c1)c1cc(Br)ccc1Cl | inactive: 96%
CC1CCC(NC(=O)c2ccc3c(c2)N(Cc2cccc(Cl)c2)C(=O)c2ccccc2S3=O)CC1 (stereo unspecified) | inactive: 19%
COc1ccc(OCc2nc3ccccc3n2C(C)C)cc1 | inactive: 102%
